No constants are given. Whether binding was seen depends on the method and setting. For some assays here: In cells and extracts the contact can be indirect. Some entries that bind do so weakly or less than the wild type. For some assays here: Sequences can lack the tags named with a protein.
What was measured:
[1] = biological target: T1, 3xFLAG-tagged MED10 (Nut2) (UniProt Q9BTT4); test: condition: only Mediator purified from the 0.85 M KCl P11 fraction; co-IP; Med(0.85): 0.85 M KCl phosphocellulose (P11) fraction of nuclear extract of HeLa cells expressing 3xFLAG-MED10, purified on anti-FLAG M2 affinity gel; subunits detected by Western blot
T1 sequence: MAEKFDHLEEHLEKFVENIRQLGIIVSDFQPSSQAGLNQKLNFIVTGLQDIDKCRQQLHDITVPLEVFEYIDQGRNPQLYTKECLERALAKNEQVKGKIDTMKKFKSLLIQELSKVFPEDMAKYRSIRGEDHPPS

Amino acid sequences for entries named in this document (tags omitted).
UniProt P16220: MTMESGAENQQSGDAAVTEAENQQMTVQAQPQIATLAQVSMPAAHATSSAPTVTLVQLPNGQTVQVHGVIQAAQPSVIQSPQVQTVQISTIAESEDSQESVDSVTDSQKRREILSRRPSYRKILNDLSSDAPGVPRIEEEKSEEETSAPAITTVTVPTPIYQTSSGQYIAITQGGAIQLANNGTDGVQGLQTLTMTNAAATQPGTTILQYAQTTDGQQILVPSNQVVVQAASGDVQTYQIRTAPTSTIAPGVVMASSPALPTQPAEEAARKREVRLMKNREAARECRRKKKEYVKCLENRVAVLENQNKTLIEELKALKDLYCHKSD
UniProt P49336: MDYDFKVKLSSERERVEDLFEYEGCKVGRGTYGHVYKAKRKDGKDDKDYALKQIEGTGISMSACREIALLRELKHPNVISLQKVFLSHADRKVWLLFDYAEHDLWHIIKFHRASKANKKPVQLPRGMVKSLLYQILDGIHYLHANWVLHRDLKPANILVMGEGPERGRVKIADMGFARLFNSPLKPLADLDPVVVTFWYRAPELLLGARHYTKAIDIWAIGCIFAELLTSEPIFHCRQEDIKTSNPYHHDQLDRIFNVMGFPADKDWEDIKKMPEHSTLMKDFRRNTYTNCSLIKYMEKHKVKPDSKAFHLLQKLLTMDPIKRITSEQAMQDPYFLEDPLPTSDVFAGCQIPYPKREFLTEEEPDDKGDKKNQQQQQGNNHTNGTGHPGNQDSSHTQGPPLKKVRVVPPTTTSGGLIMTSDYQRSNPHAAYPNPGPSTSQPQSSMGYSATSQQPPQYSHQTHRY
UniProt P24863: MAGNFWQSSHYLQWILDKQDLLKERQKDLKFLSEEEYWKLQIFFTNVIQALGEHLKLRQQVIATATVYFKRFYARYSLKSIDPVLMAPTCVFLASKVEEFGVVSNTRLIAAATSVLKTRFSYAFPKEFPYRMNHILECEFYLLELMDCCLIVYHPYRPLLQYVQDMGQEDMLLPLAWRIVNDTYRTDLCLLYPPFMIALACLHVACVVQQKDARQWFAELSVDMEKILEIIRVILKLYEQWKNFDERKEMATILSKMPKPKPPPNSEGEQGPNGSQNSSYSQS
UniProt Q00403: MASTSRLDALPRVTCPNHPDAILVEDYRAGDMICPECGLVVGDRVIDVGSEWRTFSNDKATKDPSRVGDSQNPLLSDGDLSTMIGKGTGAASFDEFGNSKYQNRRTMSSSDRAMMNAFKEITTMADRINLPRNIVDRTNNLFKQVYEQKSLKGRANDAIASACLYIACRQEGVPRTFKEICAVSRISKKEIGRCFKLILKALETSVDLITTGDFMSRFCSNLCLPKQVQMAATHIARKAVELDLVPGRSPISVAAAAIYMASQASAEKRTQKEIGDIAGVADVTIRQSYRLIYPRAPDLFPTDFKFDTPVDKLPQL
UniProt Q9UHV7: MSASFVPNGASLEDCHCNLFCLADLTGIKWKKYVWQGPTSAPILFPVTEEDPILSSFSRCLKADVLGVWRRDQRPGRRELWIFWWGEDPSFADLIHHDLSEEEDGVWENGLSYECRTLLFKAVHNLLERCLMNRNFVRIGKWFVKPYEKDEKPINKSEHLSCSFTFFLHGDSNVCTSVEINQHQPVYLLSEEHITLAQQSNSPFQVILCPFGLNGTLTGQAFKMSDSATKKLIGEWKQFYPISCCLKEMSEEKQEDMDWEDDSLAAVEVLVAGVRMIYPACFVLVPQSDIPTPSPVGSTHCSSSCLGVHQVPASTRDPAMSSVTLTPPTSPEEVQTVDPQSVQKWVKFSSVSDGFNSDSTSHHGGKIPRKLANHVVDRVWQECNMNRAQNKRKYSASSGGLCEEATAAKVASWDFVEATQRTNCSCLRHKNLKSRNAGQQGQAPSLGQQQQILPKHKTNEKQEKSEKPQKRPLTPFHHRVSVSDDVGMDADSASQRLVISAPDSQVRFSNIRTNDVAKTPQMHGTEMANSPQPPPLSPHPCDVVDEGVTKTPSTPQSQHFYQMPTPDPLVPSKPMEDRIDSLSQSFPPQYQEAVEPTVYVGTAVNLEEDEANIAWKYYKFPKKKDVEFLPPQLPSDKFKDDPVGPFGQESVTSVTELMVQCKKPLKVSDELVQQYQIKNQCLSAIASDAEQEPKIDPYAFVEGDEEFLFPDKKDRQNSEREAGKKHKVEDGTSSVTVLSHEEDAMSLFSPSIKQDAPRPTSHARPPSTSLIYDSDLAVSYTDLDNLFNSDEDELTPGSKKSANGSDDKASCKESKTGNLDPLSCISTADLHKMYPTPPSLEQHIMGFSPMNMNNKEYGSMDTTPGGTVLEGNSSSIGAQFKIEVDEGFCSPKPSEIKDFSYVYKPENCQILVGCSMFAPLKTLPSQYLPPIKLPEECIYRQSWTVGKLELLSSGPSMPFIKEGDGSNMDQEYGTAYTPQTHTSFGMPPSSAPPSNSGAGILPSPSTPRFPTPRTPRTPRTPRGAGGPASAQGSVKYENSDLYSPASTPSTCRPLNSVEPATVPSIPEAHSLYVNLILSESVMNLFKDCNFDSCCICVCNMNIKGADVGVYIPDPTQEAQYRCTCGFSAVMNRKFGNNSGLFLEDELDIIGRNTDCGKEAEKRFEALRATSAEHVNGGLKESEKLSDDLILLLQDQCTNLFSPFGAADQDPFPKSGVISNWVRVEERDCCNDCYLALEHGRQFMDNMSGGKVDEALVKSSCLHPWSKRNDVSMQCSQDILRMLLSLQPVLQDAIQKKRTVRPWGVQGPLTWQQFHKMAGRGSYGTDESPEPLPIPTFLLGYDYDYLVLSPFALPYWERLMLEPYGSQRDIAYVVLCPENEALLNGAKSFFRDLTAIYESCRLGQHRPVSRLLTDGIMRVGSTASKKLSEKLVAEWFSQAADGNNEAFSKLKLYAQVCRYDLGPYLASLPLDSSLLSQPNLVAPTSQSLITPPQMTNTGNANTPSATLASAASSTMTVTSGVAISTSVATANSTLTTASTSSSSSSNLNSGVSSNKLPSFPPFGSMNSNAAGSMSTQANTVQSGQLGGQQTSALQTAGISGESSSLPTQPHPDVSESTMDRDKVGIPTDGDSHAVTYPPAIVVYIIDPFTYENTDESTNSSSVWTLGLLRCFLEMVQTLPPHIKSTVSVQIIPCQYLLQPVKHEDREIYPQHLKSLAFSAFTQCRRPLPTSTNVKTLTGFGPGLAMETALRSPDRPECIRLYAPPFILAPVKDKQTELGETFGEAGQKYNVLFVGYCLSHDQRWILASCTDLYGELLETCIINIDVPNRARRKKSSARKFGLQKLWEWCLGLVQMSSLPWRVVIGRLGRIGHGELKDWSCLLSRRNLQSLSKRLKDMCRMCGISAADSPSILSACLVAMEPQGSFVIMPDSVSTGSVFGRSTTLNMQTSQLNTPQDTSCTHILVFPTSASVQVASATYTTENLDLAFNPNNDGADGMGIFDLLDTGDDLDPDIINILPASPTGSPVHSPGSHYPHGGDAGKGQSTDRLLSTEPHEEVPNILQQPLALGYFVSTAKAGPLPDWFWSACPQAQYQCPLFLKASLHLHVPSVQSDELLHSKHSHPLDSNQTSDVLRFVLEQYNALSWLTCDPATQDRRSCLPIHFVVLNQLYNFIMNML
UniProt P08659: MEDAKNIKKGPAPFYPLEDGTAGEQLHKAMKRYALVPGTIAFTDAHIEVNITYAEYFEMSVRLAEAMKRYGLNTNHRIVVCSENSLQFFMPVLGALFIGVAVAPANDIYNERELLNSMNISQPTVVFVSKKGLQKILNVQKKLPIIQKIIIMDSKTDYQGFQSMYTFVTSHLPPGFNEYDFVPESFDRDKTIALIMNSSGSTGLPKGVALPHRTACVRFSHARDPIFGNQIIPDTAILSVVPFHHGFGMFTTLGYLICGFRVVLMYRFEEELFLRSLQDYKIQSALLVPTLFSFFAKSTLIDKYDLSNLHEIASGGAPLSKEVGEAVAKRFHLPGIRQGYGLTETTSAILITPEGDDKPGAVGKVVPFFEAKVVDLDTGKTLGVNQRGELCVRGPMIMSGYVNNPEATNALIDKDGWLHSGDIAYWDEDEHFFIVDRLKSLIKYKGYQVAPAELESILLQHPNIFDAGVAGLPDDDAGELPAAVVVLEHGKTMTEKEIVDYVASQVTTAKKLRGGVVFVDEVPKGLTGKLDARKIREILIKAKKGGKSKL
UniProt P20226: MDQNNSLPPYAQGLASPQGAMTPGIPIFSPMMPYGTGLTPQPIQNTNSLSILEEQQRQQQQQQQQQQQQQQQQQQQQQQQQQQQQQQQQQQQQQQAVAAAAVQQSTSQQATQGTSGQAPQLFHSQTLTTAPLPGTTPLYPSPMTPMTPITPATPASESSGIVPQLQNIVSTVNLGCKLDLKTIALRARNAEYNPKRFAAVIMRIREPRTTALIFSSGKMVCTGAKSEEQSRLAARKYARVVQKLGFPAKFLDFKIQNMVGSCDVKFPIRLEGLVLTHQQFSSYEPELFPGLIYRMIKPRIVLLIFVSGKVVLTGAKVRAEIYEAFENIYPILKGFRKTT

[2] = biological target: T1, 3xFLAG-tagged MED10 (Nut2); test: co-IP; Med(0.5): 0.5 M KCl phosphocellulose (P11) fraction of nuclear extract of HeLa cells expressing 3xFLAG-MED10, purified on anti-FLAG M2 affinity gel; subunits detected by Western blot
[3] = biological target: T2, GST-hnRNP R (heterogeneous nuclear ribonucleoprotein R) (human) (UniProt O43390); test: pull-down; GST pull-down between hnRNP R and GTFs or Pol II (Figure 4C); which partner carried GST is not stated; essentially as described in ref. 20; both purified
T2 sequence: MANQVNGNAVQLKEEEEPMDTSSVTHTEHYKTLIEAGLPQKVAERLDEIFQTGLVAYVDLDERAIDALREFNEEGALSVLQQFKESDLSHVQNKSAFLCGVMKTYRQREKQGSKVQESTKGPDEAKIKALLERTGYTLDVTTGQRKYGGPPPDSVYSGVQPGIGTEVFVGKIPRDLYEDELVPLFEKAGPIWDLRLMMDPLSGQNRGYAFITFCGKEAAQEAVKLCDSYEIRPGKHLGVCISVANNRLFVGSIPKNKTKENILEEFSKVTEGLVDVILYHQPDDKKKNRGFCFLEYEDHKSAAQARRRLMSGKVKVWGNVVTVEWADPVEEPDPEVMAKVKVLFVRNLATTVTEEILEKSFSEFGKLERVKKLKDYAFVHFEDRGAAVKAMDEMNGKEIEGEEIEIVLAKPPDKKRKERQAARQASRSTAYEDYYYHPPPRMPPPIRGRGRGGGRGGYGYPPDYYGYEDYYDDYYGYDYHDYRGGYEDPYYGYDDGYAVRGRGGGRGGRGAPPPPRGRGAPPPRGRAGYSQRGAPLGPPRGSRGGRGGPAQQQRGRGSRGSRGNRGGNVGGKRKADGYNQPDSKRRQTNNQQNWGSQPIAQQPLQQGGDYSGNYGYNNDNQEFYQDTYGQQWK

[4] = biological target: T2, GST-hnRNP R (heterogeneous nuclear ribonucleoprotein R) (human); test: pull-down; GST pull-down, GST-hnRNP R or GST alone immobilised; Mediator, PC4 or FLAG-luciferase in solution (Figure 4A); essentially as described in ref. 20; both purified
[5] = biological target: T3, hnRNP R, endogenous in HeLa nuclear extract (human (endogenous in HeLa)) (UniProt O43390); test: co-IP; HeLa nuclear extract (~20 mg protein) with 1 ug purified anti-hnRNP R antibody, 4 C, rProtein A Sepharose; washed with buffer C with 100 mM KCl, 0.01% Nonidet P-40; Western blot
T3 sequence: T2 sequence

[6] = biological target: T4, GST-ATF1 (activating transcription factor 1) (UniProt P18846); test: pull-down; GST pull-down, GST-Elk-1, -CREB, -ATF1, -SRF or GST immobilised; hnRNP R in solution (Figure 4B); essentially as described in ref. 20; both purified
T4 sequence: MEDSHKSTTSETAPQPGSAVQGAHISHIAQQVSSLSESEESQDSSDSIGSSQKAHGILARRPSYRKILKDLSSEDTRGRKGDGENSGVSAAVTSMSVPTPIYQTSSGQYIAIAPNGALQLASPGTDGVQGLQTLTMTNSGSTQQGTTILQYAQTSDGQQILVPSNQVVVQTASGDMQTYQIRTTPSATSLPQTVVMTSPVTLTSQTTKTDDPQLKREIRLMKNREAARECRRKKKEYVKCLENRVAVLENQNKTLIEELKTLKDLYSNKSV

[7] = biological target: T5, GST-SRF (serum response factor) (UniProt P11831); test: as above
T5 sequence: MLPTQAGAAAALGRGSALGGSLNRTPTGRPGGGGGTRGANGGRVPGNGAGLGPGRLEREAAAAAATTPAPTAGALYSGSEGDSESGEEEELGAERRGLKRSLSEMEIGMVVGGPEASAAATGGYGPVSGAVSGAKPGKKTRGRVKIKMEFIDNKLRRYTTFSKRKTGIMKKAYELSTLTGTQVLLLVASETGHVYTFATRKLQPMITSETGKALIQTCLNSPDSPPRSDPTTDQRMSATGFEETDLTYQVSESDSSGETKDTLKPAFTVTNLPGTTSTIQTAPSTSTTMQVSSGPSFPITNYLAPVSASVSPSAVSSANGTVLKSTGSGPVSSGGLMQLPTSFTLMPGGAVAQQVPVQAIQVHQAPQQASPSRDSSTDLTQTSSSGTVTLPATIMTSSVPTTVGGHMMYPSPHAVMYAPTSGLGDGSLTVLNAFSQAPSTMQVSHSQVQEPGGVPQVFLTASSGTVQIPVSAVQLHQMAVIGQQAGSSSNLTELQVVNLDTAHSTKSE

[8] = biological target: T6, GST-Elk-1 (Ets-related transcription factor) (UniProt P19419); test: as above
T6 sequence: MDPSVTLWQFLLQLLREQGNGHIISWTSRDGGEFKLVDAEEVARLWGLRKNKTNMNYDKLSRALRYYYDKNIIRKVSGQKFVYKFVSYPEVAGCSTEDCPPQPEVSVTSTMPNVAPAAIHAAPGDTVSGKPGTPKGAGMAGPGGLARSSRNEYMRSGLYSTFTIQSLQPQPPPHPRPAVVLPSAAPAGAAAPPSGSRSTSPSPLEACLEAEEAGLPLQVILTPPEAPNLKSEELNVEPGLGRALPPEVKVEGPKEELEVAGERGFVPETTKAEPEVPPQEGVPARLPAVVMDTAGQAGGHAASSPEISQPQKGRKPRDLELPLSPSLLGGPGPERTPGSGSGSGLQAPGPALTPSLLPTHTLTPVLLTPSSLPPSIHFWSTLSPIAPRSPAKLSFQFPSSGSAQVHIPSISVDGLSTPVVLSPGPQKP

[9] = biological target: GST-CREB (CRE-binding factor) (UniProt P16220); test: as above
[10] = biological target: T1, 3xFLAG-tagged MED10 (Nut2); test: co-IP; Med(0.85): 0.85 M KCl phosphocellulose (P11) fraction of nuclear extract of HeLa cells expressing 3xFLAG-MED10, purified on anti-FLAG M2 affinity gel; subunits detected by Western blot

With “cyclin-dependent kinase 8 (CDK8) (from UniProt P49336 1-464)” the binding [1] was “no binding” and the binding [2] was “binds”.

For Cyclin C (from UniProt P24863 1-283), the binding [1] was “no binding” and the binding [2] was “binds”.

With TFIIB (from UniProt Q00403 1-316) the binding [3] was “binds”.

MED13 (from UniProt Q9UHV7 1-2174) was tested, and the binding [1] was “no binding” and the binding [2] was “binds”.

With “FLAG-tagged luciferase (from UniProt P08659 1-550) (enzyme)” the binding [4] was “no binding”.

In the case of TBP (from UniProt P20226 1-339), the binding [3] is reported as “binds”.

In the case of “CREB, endogenous in HeLa nuclear extract (from UniProt P16220 1-327)”, the binding [5] is reported as “binds”.

B1: FLAG-tagged hnRNP R (F:hnRNP R) (protein, UniProt O43390 1-633)
chain: T2 sequence
For B1, the binding [6] was “binds”, the binding [7] was “no binding” and the binding [8] was “binds”. For the same molecule, the binding [9] was “binds”.

B2: Elk-1, endogenous in HeLa nuclear extract (protein, UniProt P19419 1-428)
chain: T6 sequence
B2 was tested, and the binding [5] was “binds”.

B3: MED17 (protein, UniProt Q9NVC6 1-651)
chain: MSGVRAVRISIESACEKQVHEVGLDGTETYLPPLSMSQNLARLAQRIDFSQGSGSEEEEAAGTEGDAQEWPGAGSSADQDDEEGVVKFQPSLWPWDSVRNNLRSALTEMCVLYDVLSIVRDKKFMTLDPVSQDALPPKQNPQTLQLISKKKSLAGAAQILLKGAERLTKSVTENQENKLQRDFNSELLRLRQHWKLRKVGDKILGDLSYRSAGSLFPHHGTFEVIKNTDLDLDKKIPEDYCPLDVQIPSDLEGSAYIKVSIQKQAPDIGDLGTVNLFKRPLPKSKPGSPHWQTKLEAAQNVLLCKEIFAQLSREAVQIKSQVPHIVVKNQIISQPFPSLQLSISLCHSSNDKKSQKFATEKQCPEDHLYVLEHNLHLLIREFHKQTLSSIMMPHPASAPFGHKRMRLSGPQAFDKNEINSLQSSEGLLEKIIKQAKHIFLRSRAAATIDSLASRIEDPQIQAHWSNINDVYESSVKVLITSQGYEQICKSIQLQLNIGVEQIRVVHRDGRVITLSYQEQELQDFLLSQMSQHQVHAVQQLAKVMGWQVLSFSNHVGLGPIESIGNASAITVASPSGDYAISVRNGPESGSKIMVQFPRNQCKDLPKSDVLQDNKWSHLRGPFKEVQWNKMEGRNFVYKMELLMSALSPCLL
In the case of B3, the binding [2] is reported as “binds” and the binding [10] is reported as “binds”.

Source: paper PMC3742609
